Assay results published in article PMC7399486.
These are yes or no findings as the source states them, for the method shown. In cells and extracts the contact can be indirect. Some results given as binding are weak or reduced against the parent protein; the word gives no strength. Where a sequence is shown, tags or fusion partners need not be part of it.

Chains of the proteins cited; added tags and fusions are not shown.
UniProt P61586: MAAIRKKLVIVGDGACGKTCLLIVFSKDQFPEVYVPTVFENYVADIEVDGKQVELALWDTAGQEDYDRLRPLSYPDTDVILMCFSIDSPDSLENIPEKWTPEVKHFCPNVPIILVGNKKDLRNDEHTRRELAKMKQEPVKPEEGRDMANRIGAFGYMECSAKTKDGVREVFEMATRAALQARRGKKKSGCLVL

Columns and labels:
Assay in all cases: co-IP; lysates (RIPA buffer) of HEK293T cells transiently co-expressing the two tagged proteins, 24 h after transfection; anti-FLAG M2 agarose beads or anti-HA magnetic beads as indicated; Western blot
FLAG-tagged RhoA (human) = FLAG-tagged RhoA (human) (UniProt P61586)
HA-tagged GEF-H1 (human) = molecular target: T1, HA-tagged GEF-H1 (human) (UniProt Q92974)
T1 sequence: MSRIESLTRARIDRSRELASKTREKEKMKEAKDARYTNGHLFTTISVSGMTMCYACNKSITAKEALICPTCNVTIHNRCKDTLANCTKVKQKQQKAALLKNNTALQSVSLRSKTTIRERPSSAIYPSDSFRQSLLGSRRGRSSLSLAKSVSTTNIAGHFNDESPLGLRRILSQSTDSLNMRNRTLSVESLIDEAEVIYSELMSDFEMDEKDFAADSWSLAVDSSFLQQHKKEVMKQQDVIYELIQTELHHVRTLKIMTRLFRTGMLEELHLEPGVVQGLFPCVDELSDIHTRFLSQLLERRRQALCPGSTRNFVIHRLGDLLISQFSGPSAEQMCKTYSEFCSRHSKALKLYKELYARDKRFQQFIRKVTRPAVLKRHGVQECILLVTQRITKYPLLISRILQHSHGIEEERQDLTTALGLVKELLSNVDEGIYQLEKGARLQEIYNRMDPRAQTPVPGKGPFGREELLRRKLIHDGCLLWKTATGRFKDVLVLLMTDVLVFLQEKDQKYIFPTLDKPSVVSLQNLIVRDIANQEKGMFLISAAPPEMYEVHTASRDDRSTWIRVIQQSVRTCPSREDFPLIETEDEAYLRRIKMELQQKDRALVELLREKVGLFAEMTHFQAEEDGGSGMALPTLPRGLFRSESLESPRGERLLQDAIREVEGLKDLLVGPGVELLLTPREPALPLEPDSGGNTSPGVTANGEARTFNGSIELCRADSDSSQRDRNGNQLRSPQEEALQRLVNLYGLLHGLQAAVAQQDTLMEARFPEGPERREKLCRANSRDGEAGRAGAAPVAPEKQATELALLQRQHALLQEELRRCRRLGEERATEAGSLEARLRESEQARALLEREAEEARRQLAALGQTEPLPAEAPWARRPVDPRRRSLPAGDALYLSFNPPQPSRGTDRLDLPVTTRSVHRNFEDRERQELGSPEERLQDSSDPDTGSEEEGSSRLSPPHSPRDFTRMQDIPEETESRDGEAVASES

HA-tagged RhoA (human) = HA-tagged RhoA (human) (UniProt P61586)

B1: HA-tagged BNIP-2 (protein, UniProt Q12982 1-314)
chain: MEGVELKEEWQDEDFPIPLPEDDSIEADILAITGPEDQPGSLEVNGNKVRKKLMAPDISLTLDPSDGSVLSDDLDESGEIDLDGLDTPSENSNEFEWEDDLPKPKTTEVIRKGSITEYTAAEEKEDGRRWRMFRIGEQDHRVDMKAIEPYKKVISHGGYYGDGLNAIVVFAVCFMPESSQPNYRYLMDNLFKYVIGTLELLVAENYMIVYLNGATTRRKMPSLGWLRKCYQQIDRRLRKNLKSLIIVHPSWFIRTLLAVTRPFISSKFSQKIRYVFNLAELAELVPMEYVGIPECIKQVDQELNGKQDEPKNEQ
B1 was tested, and the binding (FLAG-tagged RhoA (human)) was “binds”.

B2: GFP-tagged BNIP-2 (full length) (protein, UniProt Q12982 1-314)
chain: B1 chain
For B2, the binding (HA-tagged GEF-H1 (human)) was “binds” and the binding (HA-tagged RhoA (human)) was “binds”.

B3: FLAG-tagged BNIP-2-FL (protein, UniProt Q12982 1-314)
chain: B1 chain
For B3, the binding (HA-tagged RhoA (human)) was “binds”.

B4: FLAG-tagged BNIP-2-ΔRBD (protein, UniProt Q12982)
chain: MEGVELKEEWQDEDFPIPLPEDDSIEADILAITGPEDQPGSLEVNGNKVRKKLMAPDISLTLDPSDGSVLSDDLDESGEIDLDGLDTPSENSNEFEWEDDLPKPKTTEVIRKGSITEYTAAEEKEDGRRWRMFRIGEQDHRVDMKAIEPYKKVISHGGYYGDGLNANGATTRRKMPSLGWLRKCYQQIDRRLRKNLKSLIIVHPSWFIRTLLAVTRPFISSKFSQKIRYVFNLAELAELVPMEYVGIPECIKQVDQELNGKQDEPKNEQ
In the case of B4, the binding (HA-tagged RhoA (human)) is reported as “no binding”.
